Patent US20220064691A1 (ABERA BIOSCIENCE, published 2022)

Tests used:
[1] = molecular target: T1, Pla2-SpT; assay: overview table of covalent ligation to inclusion bodies
T1 construct: also called Pla2-SpyTag
T1 chain: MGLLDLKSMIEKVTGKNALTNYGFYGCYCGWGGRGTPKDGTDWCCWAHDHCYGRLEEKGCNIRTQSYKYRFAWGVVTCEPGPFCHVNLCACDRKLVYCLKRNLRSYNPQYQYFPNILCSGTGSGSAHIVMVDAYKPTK

[2] = molecular target: T2, Pla2-SnT; assay: as above
T2 construct: also called Pla2-SnoopTag
T2 chain: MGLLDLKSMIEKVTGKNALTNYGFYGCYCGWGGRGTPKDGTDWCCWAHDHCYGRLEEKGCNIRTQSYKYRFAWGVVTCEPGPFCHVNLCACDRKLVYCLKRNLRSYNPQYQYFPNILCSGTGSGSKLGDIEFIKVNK

B1: SpyCatcher-SnoopCatcher fusion protein (other)
chain: MSYYHHHHHHDYDS[about 80 residues left out]GKATKGDAHIGSPANLKALEAQKQKEQRQAAEELANAKKLKEQLEKGSHMKPLRGAVFSLQKQHPDYPDIYGAIDQNGTYQNVRTGEDGKLTFKNLSDGKYRLFENSEPAGYKPVQNKPIVAFQIVNGEVRDVTSIVPQDIPATYEFTNGKHYITNEPIPPK
notes: also called SpC-SnC
binding result [1]: binds
binding result [2]: binds
